These results are taken from the supplement of paper PMC10369915.

This is one part of the list. Rule as the data show it: active = 3.2 or more and inactive = the rest. Only a few entries rise above the background.

Some targets named below: SHP2 C-SH2 domain E139D; SHP2 N-SH2 domain L43F; SHP2 N-SH2 domain T42A; SHP2 N-SH2 domain T52S.
Holding throughout (experiment): enrichment score (SH2-bound / input frequency) (ratio); bacterial display of known human phosphotyrosine sites (pTyr-Var adds point mutants) read by sequencing; higher = stronger binding; tyrosines were phosphorylated by kinases first
Holding throughout (settings): peptide library: pTyr-Var

Test [1] has as its target SHP2 C-SH2 domain wild-type.
For test [2], the target named is SHP2 N-SH2 domain wild-type.
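Also: displayed peptides selected on beads carrying the immobilized SH2 domain, with library peptides lacking any tyrosine serving as negative controls.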

B1: BIRC3_Y245_S248C (peptide)
chain: QDTSRYTVCNL
B1: the enrichment score is inactive: 0.664 with SHP2 C-SH2 domain E139D; inactive: 1.05 in test [1]; inactive: 0.56 with SHP2 N-SH2 domain L43F; inactive: 0.742 in the test with SHP2 N-SH2 domain T42A; inactive: 0.694 with SHP2 N-SH2 domain T52S; inactive: 1.32 in test [2].

B2: BCR_Y756_D752E (peptide)
chain: YECKWYIPLTD
With B2, the enrichment score in the test with SHP2 C-SH2 domain E139D is inactive: 0.981; in test [1] it was inactive: 1.26; with SHP2 N-SH2 domain L43F, inactive: 1.16; with SHP2 N-SH2 domain T42A, inactive: 0.827; with SHP2 N-SH2 domain T52S, inactive: 0.915; in test [2], inactive: 1.68.

B3: BLM_Y296 (peptide)
chain: FDDDDYDTDFV
In the case of B3, the enrichment score with SHP2 C-SH2 domain E139D was inactive: 0.432; in test [1], inactive: 0.545; with SHP2 N-SH2 domain L43F, inactive: 0.415; with SHP2 N-SH2 domain T42A, inactive: 0.432; with SHP2 N-SH2 domain T52S it was inactive: 0.491; in test [2] it was inactive: 0.402.

B4: BCR_Y751_YF (peptide)
chain: GKTQQYDCKWF
Consider B4, for which the enrichment score is inactive: 1.07 with SHP2 C-SH2 domain E139D; inactive: 1.03 in test [1]; inactive: 0.822 with SHP2 N-SH2 domain L43F; inactive: 0.817 with SHP2 N-SH2 domain T42A; inactive: 0.84 with SHP2 N-SH2 domain T52S; inactive: 1.2 in test [2].

B5: BEST1_Y227_Y227N_YF (peptide)
chain: GHLFANDWISI
As for B5, the enrichment score in the test with SHP2 C-SH2 domain E139D was inactive: 0.998; in test [1], inactive: 0.909; with SHP2 N-SH2 domain L43F, inactive: 0.983; in the test with SHP2 N-SH2 domain T42A, inactive: 1.14; with SHP2 N-SH2 domain T52S, inactive: 1.03; in test [2], inactive: 0.933.

B6: BEST1_Y227_Y227N (peptide)
chain: GHLYANDWISI
As for B6, the enrichment score with SHP2 C-SH2 domain E139D was active: 3.89; in test [1], inactive: 3.06; in the test with SHP2 N-SH2 domain L43F, active: 3.62; with SHP2 N-SH2 domain T42A it was active: 11.2; with SHP2 N-SH2 domain T52S it was active: 3.74; in test [2] it was inactive: 3.16.

B7: BCR_Y751 (peptide)
chain: GKTQQYDCKWY
In the case of B7, the enrichment score with SHP2 C-SH2 domain E139D was inactive: 0.974; in test [1], inactive: 0.818; with SHP2 N-SH2 domain L43F it was inactive: 0.819; with SHP2 N-SH2 domain T42A, inactive: 0.659; with SHP2 N-SH2 domain T52S it was inactive: 0.659; in test [2] it was inactive: 1.17.

B8: BIN1_Y157_R154Q (peptide)
chain: SAQHHYESLQT
Regarding B8, the enrichment score was inactive: 0.995 with SHP2 C-SH2 domain E139D; inactive: 0.93 in test [1]; inactive: 1.05 in the test with SHP2 N-SH2 domain L43F; inactive: 1.32 with SHP2 N-SH2 domain T42A; inactive: 0.857 with SHP2 N-SH2 domain T52S; inactive: 0.821 in test [2].

B9: BMP15_Y235 (peptide)
chain: AFLLLYFNDTH
For B9, the enrichment score is inactive: 2.54 with SHP2 C-SH2 domain E139D; inactive: 2.3 in test [1]; inactive: 1.91 in the test with SHP2 N-SH2 domain L43F; inactive: 1.77 in the test with SHP2 N-SH2 domain T42A; inactive: 2.17 with SHP2 N-SH2 domain T52S; inactive: 2.31 in test [2].

B10: BEST1_Y131 (peptide)
chain: RTLIRYANLGN
Turning to B10, the enrichment score in the test with SHP2 C-SH2 domain E139D was inactive: 0.814; in test [1], inactive: 1.23; with SHP2 N-SH2 domain L43F it was inactive: 1.66; with SHP2 N-SH2 domain T42A, active: 4.01; in the test with SHP2 N-SH2 domain T52S, inactive: 1.81; in test [2] it was inactive: 1.23.

B11: BCS1L_Y181_R183H (peptide)
chain: WRPFGYPHRRR
Consider B11, for which the enrichment score with SHP2 C-SH2 domain E139D was inactive: 0.187; in test [1] it was inactive: 0.2; in the test with SHP2 N-SH2 domain L43F, inactive: 0.209; with SHP2 N-SH2 domain T42A, inactive: 0.338; with SHP2 N-SH2 domain T52S, inactive: 0.268; in test [2], inactive: 0.302.

B12: BEST1_Y227_G222V (peptide)
chain: VHLYAYDWISI
Take B12: the enrichment score in the test with SHP2 C-SH2 domain E139D is active: 3.24; in test [1] it was active: 3.31; in the test with SHP2 N-SH2 domain L43F, inactive: 3.06; with SHP2 N-SH2 domain T42A it was inactive: 2.96; with SHP2 N-SH2 domain T52S, inactive: 3.03; in test [2], inactive: 3.1.

B13: BEST1_Y227_YF (peptide)
chain: GHLFAYDWISI
Take B13: the enrichment score with SHP2 C-SH2 domain E139D is inactive: 2.41; in test [1] it was inactive: 1.97; in the test with SHP2 N-SH2 domain L43F, inactive: 2.15; with SHP2 N-SH2 domain T42A it was inactive: 2.06; with SHP2 N-SH2 domain T52S it was inactive: 2.31; in test [2], inactive: 2.12.

B14: BEST1_Y227_D228N_YF (peptide)
chain: GHLFAYNWISI
Take B14: the enrichment score in the test with SHP2 C-SH2 domain E139D is inactive: 2.15; in test [1] it was inactive: 1.94; in the test with SHP2 N-SH2 domain L43F, inactive: 1.72; in the test with SHP2 N-SH2 domain T42A, inactive: 1.76; with SHP2 N-SH2 domain T52S, inactive: 1.79; in test [2], inactive: 2.05.

B15: BEST1_Y227_G222V_YF (peptide)
chain: VHLFAYDWISI
Take B15: the enrichment score in the test with SHP2 C-SH2 domain E139D was inactive: 2.75; in test [1] it was inactive: 2.49; in the test with SHP2 N-SH2 domain L43F it was inactive: 2.45; in the test with SHP2 N-SH2 domain T42A it was inactive: 2.41; with SHP2 N-SH2 domain T52S, inactive: 2.32; in test [2], inactive: 2.69.

B16: BIRC3_Y245 (peptide)
chain: QDTSRYTVSNL
As to B16, the enrichment score in the test with SHP2 C-SH2 domain E139D is inactive: 0.531; in test [1], inactive: 0.749; in the test with SHP2 N-SH2 domain L43F, inactive: 0.637; with SHP2 N-SH2 domain T42A it was inactive: 0.673; in the test with SHP2 N-SH2 domain T52S, inactive: 0.598; in test [2], inactive: 0.831.

B17: BCR_Y910_Y910C (peptide)
chain: ESPGLCGFLNV
For the molecule B17, the enrichment score with SHP2 C-SH2 domain E139D was inactive: 0.722; in test [1], inactive: 1.08; with SHP2 N-SH2 domain L43F, inactive: 0.807; with SHP2 N-SH2 domain T42A, inactive: 0.808; with SHP2 N-SH2 domain T52S it was inactive: 0.895; in test [2], inactive: 1.05.

B18: BCR_Y910 (peptide)
chain: ESPGLYGFLNV
As to B18, the enrichment score was inactive: 0.9 in the test with SHP2 C-SH2 domain E139D; inactive: 0.875 in test [1]; inactive: 0.806 with SHP2 N-SH2 domain L43F; inactive: 0.827 with SHP2 N-SH2 domain T42A; inactive: 0.767 in the test with SHP2 N-SH2 domain T52S; inactive: 0.958 in test [2].

B19: BCR_Y756 (peptide)
chain: YDCKWYIPLTD
For B19, the enrichment score with SHP2 C-SH2 domain E139D was inactive: 0.615; in test [1], inactive: 0.838; in the test with SHP2 N-SH2 domain L43F it was inactive: 0.685; with SHP2 N-SH2 domain T42A, inactive: 0.607; with SHP2 N-SH2 domain T52S, inactive: 0.704; in test [2], inactive: 0.839.
